# Data published in the supplement of paper PMC8728848.
# Some of the results follow.
# Columns and labels:
# Assay in all cases: glycan array binding signal (z-score within array); higher = stronger binding
# Conditions in all cases: glycan notation: IUPAC condensed, linker removed
# [1] = target: Neu5Ac(a2-3)Gal
# Method in brief: (§1)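 The binding signal is a Z-score computed within each array. Data were drawn from 3228 arrays in the Consortium for Functional Glycomics database, restricted to those with a known protein sequence. Scores were averaged over arrays of the same protein sequence at different concentrations or buffers, and over linkers, and negative values can be taken as non-binding.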
# [2] = target: Neu5Ac(a2-3)Gal(b1-3)GalNAc
# Method in brief: as §1
# [3] = target: Neu5Ac(a2-3)Gal(b1-3)GalNAc(b1-3)Gal(a1-4)Gal(b1-4)Glc
# Method in brief: as §1
# [4] = target: Neu5Ac(a2-3)Gal(b1-3)GalNAc(b1-4)[Neu5Ac(a2-3)]Gal(b1-4)Glc
# Method in brief: as §1
# [5] = target: Neu5Ac(a2-3)Gal(b1-3)GalNAc(b1-4)[Neu5Ac(a2-8)Neu5Ac(a2-3)]Gal(b1-4)Glc
# Method in brief: as §1
# [6] = target: Neu5Ac(a2-3)Gal(b1-3)GalNAc6S
# Method in brief: as §1
# [7] = target: Neu5Ac(a2-3)Gal(b1-3)GlcNAc
# Method in brief: as §1
# [8] = target: Neu5Ac(a2-3)Gal(b1-3)GlcNAc(b1-2)Man
# Method in brief: as §1
# [9] = target: Neu5Ac(a2-3)Gal(b1-3)GlcNAc(b1-2)Man(a1-3)[GlcNAc(b1-4)][Neu5Ac(a2-3)Gal(b1-3)GlcNAc(b1-2)Man(a1-6)]Man(b1-4)GlcNAc(b1-4)GlcNAc
# Method in brief: as §1
# [10] = target: Neu5Ac(a2-3)Gal(b1-3)GlcNAc(b1-2)Man(a1-3)[Neu5Ac(a2-3)Gal(b1-3)GlcNAc(b1-2)Man(a1-6)]Man(b1-4)GlcNAc(b1-4)GlcNAc
# Method in brief: as §1
# [11] = target: Neu5Ac(a2-3)Gal(b1-3)GlcNAc(b1-3)Gal(b1-3)GlcNAc
# Method in brief: as §1
# [12] = target: Neu5Ac(a2-3)Gal(b1-3)GlcNAc(b1-3)Gal(b1-4)GlcNAc
# Method in brief: as §1
# [13] = target: Neu5Ac(a2-3)Gal(b1-3)GlcNAc(b1-3)GalNAc
# Method in brief: as §1
# [14] = target: Neu5Ac(a2-3)Gal(b1-3)GlcNAc(b1-4)Gal(b1-4)Glc
# Method in brief: as §1
# [15] = target: Neu5Ac(a2-3)Gal(b1-3)GlcNAc(b1-6)GalNAc
# Method in brief: as §1
# [16] = target: Neu5Ac(a2-3)Gal(b1-3)GlcNAc6S
# Method in brief: as §1
# [17] = target: Neu5Ac(a2-3)Gal(b1-3)[Fuc(a1-4)]GlcNAc
# Method in brief: as §1
# [18] = target: Neu5Ac(a2-3)Gal(b1-3)[Fuc(a1-4)]GlcNAc(b1-3)Gal(b1-3)[Fuc(a1-4)]GlcNAc
# Method in brief: as §1
# [19] = target: Neu5Ac(a2-3)Gal(b1-3)[Fuc(a1-4)]GlcNAc(b1-3)Gal(b1-4)[Fuc(a1-3)]GlcNAc
# Method in brief: as §1
# [20] = target: Neu5Ac(a2-3)Gal(b1-3)[GlcNAc(b1-6)]GalNAc
# Method in brief: as §1
# [21] = target: Neu5Ac(a2-3)Gal(b1-3)[Neu5Ac(a2-6)]GalNAc
# Method in brief: as §1
# [22] = target: Neu5Ac(a2-3)Gal(b1-3)[Neu5Ac(a2-6)]GlcNAc(b1-3)[Fuc(a1-3)[Gal(b1-4)]GlcNAc(b1-6)]Gal(b1-4)Glc
# Method in brief: as §1
# [23] = target: Neu5Ac(a2-3)Gal(b1-3)]Neu5Ac(a2-3)Gal(b1-4)]GlcNAc
# Method in brief: as §1
# [24] = target: Neu5Ac(a2-3)Gal(b1-4)Glc
# Method in brief: as §1
# [25] = target: Neu5Ac(a2-3)Gal(b1-4)GlcNAc
# Method in brief: as §1
# [26] = target: Neu5Ac(a2-3)Gal(b1-4)GlcNAc(b1-2)Man
# Method in brief: as §1
# [27] = target: Neu5Ac(a2-3)Gal(b1-4)GlcNAc(b1-2)Man(a1-3)[GlcNAc(b1-4)][Neu5Ac(a2-3)Gal(b1-4)GlcNAc(b1-2)Man(a1-6)]Man(b1-4)GlcNAc(b1-4)GlcNAc
# Method in brief: as §1
# [28] = target: Neu5Ac(a2-3)Gal(b1-4)GlcNAc(b1-2)Man(a1-3)[Neu5Ac(a2-3)Gal(b1-4)GlcNAc(b1-2)Man(a1-6)]Man(b1-4)GlcNAc(b1-4)GlcNAc
# Method in brief: as §1
# [29] = target: Neu5Ac(a2-3)Gal(b1-4)GlcNAc(b1-2)Man(a1-3)[Neu5Ac(a2-3)Gal(b1-4)GlcNAc(b1-2)Man(a1-6)]Man(b1-4)GlcNAc(b1-4)[Fuc(a1-6)]GlcNAc
# Method in brief: as §1
# [30] = target: Neu5Ac(a2-3)Gal(b1-4)GlcNAc(b1-2)Man(a1-3)[Neu5Ac(a2-6)Gal(b1-4)GlcNAc(b1-2)Man(a1-6)]Man(b1-4)GlcNAc(b1-4)GlcNAc
# Method in brief: as §1
# [31] = target: Neu5Ac(a2-3)Gal(b1-4)GlcNAc(b1-2)[Neu5Ac(a2-3)Gal(b1-4)GlcNAc(b1-2)]Man(a1-6)[Neu5Ac(a2-3)Gal(b1-4)GlcNAc(b1-2)Man(a1-3)][GlcNAc(b1-4)]Man(b1-4)GlcNAc(b1-4)GlcNAc
# Method in brief: as §1
# [32] = target: Neu5Ac(a2-3)Gal(b1-4)GlcNAc(b1-2)[Neu5Ac(a2-3)Gal(b1-4)GlcNAc(b1-4)]Man(a1-3)[GlcNAc(b1-4)][Neu5Ac(a2-3)Gal(b1-4)GlcNAc(b1-2)[Neu5Ac(a2-3)Gal(b1-4)GlcNAc(b1-6)]Man(a1-6)]Man(b1-4)GlcNAc(b1-4)GlcNAc
# Method in brief: as §1
# [33] = target: Neu5Ac(a2-3)Gal(b1-4)GlcNAc(b1-2)[Neu5Ac(a2-3)Gal(b1-4)GlcNAc(b1-4)]Man(a1-3)[GlcNAc(b1-4)][Neu5Ac(a2-3)Gal(b1-4)GlcNAc(b1-4)Man(a1-6)]Man(b1-4)GlcNAc(b1-4)GlcNAc
# Method in brief: as §1
# [34] = target: Neu5Ac(a2-3)Gal(b1-4)GlcNAc(b1-2)[Neu5Ac(a2-3)Gal(b1-4)GlcNAc(b1-6)]Man(a1-6)[Neu5Ac(a2-3)Gal(b1-4)GlcNAc(b1-2)Man(a1-3)]Man(b1-4)GlcNAc(b1-4)GlcNAc
# Method in brief: as §1
# [35] = target: Neu5Ac(a2-3)Gal(b1-4)GlcNAc(b1-2)[Neu5Ac(a2-3)Gal(b1-4)GlcNAc(b1-6)]Man(a1-6)[Neu5Ac(a2-3)Gal(b1-4)GlcNAc(b1-2)Man(a1-3)][GlcNAc(b1-4)]Man(b1-4)GlcNAc(b1-4)GlcNAc
# Method in brief: as §1
# [36] = target: Neu5Ac(a2-3)Gal(b1-4)GlcNAc(b1-3)Gal
# Method in brief: as §1
# [37] = target: Neu5Ac(a2-3)Gal(b1-4)GlcNAc(b1-3)Gal(b1-3)GlcNAc
# Method in brief: as §1
# [38] = target: Neu5Ac(a2-3)Gal(b1-4)GlcNAc(b1-3)Gal(b1-4)GlcNAc
# Method in brief: as §1
# [39] = target: Neu5Ac(a2-3)Gal(b1-4)GlcNAc(b1-3)Gal(b1-4)GlcNAc(b1-2)Man(a1-3)[Neu5Ac(a2-3)Gal(b1-4)GlcNAc(b1-3)Gal(b1-4)GlcNAc(b1-2)Man(a1-6)]Man(b1-4)GlcNAc(b1-4)GlcNAc
# Method in brief: as §1
# [40] = target: Neu5Ac(a2-3)Gal(b1-4)GlcNAc(b1-3)Gal(b1-4)GlcNAc(b1-3)Gal(b1-4)GlcNAc
# Method in brief: as §1
# [41] = target: Neu5Ac(a2-3)Gal(b1-4)GlcNAc(b1-3)Gal(b1-4)GlcNAc(b1-3)Gal(b1-4)GlcNAc(b1-2)Man(a1-3)[Neu5Ac(a2-3)Gal(b1-4)GlcNAc(b1-3)Gal(b1-4)GlcNAc(b1-3)Gal(b1-4)GlcNAc(b1-2)Man(a1-6)]GalNAc
# Method in brief: as §1
# [42] = target: Neu5Ac(a2-3)Gal(b1-4)GlcNAc(b1-3)Gal(b1-4)GlcNAc(b1-3)GalNAc
# Method in brief: as §1
# [43] = target: Neu5Ac(a2-3)Gal(b1-4)GlcNAc(b1-3)Gal(b1-4)GlcNAc(b1-3)[Neu5Ac(a2-3)Gal(b1-4)GlcNAc(b1-3)Gal(b1-4)GlcNAc(b1-6)]GalNAc
# Method in brief: as §1
# [44] = target: Neu5Ac(a2-3)Gal(b1-4)GlcNAc(b1-3)Gal(b1-4)GlcNAc(b1-6)[Gal(b1-3)]GalNAc
# Method in brief: as §1
# [45] = target: Neu5Ac(a2-3)Gal(b1-4)GlcNAc(b1-3)Gal(b1-4)[Fuc(a1-3)]GlcNAc
# Method in brief: as §1
binder,measurement,setting,value
Threefoil (Haloarcula marismortui) (protein) GSSHHHHHHHHHHSSGLVPRGSHMGDGYYKLVARHSGKALDVENASTSDGANVIQYSYSGGDNQQWRLVDLGDGYYKLVARHSGKALDVENASTSDGANVIQYSYSGGDNQQWRLVDLGDGYYKLVARHSGKALDVENASTSDGANVIQYSYSGGDNQQWRLVDL,glycan array binding signal (z-score),[1],-0.291
same,glycan array binding signal (z-score),[2],-0.252
same,glycan array binding signal (z-score),[3],-0.283
same,glycan array binding signal (z-score),[4],-0.148
same,glycan array binding signal (z-score),[5],-0.245
same,glycan array binding signal (z-score),[6],-0.067
same,glycan array binding signal (z-score),[7],-0.198
same,glycan array binding signal (z-score),[8],-0.149
same,glycan array binding signal (z-score),[9],-0.252
same,glycan array binding signal (z-score),[10],-0.195
same,glycan array binding signal (z-score),[11],-0.139
same,glycan array binding signal (z-score),[12],-0.3
same,glycan array binding signal (z-score),[13],-0.266
same,glycan array binding signal (z-score),[14],-0.272
same,glycan array binding signal (z-score),[15],-0.324
same,glycan array binding signal (z-score),[16],-0.17
same,glycan array binding signal (z-score),[17],-0.243
same,glycan array binding signal (z-score),[18],-0.148
same,glycan array binding signal (z-score),[19],-0.183
same,glycan array binding signal (z-score),[20],-0.377
same,glycan array binding signal (z-score),[21],-0.151
same,glycan array binding signal (z-score),[22],-0.154
same,glycan array binding signal (z-score),[23],-0.136
same,glycan array binding signal (z-score),[24],-0.26
same,glycan array binding signal (z-score),[25],-0.15
same,glycan array binding signal (z-score),[26],-0.022
same,glycan array binding signal (z-score),[27],-0.269
same,glycan array binding signal (z-score),[28],-0.211
same,glycan array binding signal (z-score),[29],-0.134
same,glycan array binding signal (z-score),[30],-0.287
same,glycan array binding signal (z-score),[31],-0.231
same,glycan array binding signal (z-score),[32],-0.221
same,glycan array binding signal (z-score),[33],-0.211
same,glycan array binding signal (z-score),[34],-0.269
same,glycan array binding signal (z-score),[35],-0.226
same,glycan array binding signal (z-score),[36],-0.299
same,glycan array binding signal (z-score),[37],-0.288
same,glycan array binding signal (z-score),[38],-0.186
same,glycan array binding signal (z-score),[39],-0.284
same,glycan array binding signal (z-score),[40],-0.127
same,glycan array binding signal (z-score),[41],0.147
same,glycan array binding signal (z-score),[42],-0.288
same,glycan array binding signal (z-score),[43],-0.102
same,glycan array binding signal (z-score),[44],-0.284
same,glycan array binding signal (z-score),[45],-0.26
